Experimental data taken from the supplement of paper PMC9151546.
Most values come without repeats; read them as rough.

Experiments:
CHO-K1 [1] = assay: hypodiploid nuclei frequency (% of nucleated events); higher = more hypodiploid events (aneugenic)
Experimental: (§1)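 Flow-cytometric in vitro micronucleus assay (Litron MicroFlow) in CHO-K1 cells in 96-well plates, 19 concentrations (4.5-200 µM, n=1 per concentration). Without S9, cells were exposed for 24 h and sampled at 48 h. With Aroclor 1254-induced rat liver S9, cells were exposed for 3-4 h and sampled at 27-28 h. Read-outs are %MN and %hypodiploid nuclei relative to nucleated events, and relative survival as the nuclei-to-bead ratio versus the 1% DMSO vehicle control (x100).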

CHO-K1 [2] = assay: relative survival (nuclei to bead ratio vs DMSO control) (% of vehicle control); higher = more surviving cells
Experimental: as §1

CHO-K1 [3] = assay: micronucleus frequency (% of nucleated events); higher = more micronuclei (genotoxic)
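For hypodiploid nuclei frequency (% of nucleated events) in this document: hypodiploid nuclei gated on a flow cytometer with 488 nm excitation after SYTOX Green staining, cultures at 37 °C, positive controls vinblastine without S9 and cyclophosphamide with S9.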
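For micronucleus frequency (% of nucleated events) in this document: cells lysed with nuclei stained by SYTOX Green, then micronucleus-gated events counted against nucleated events by flow cytometry with 488 nm excitation.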
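For relative survival (nuclei to bead ratio vs DMSO control) in this document: Lysed-cell nuclei stained with SYTOX Green and counted against counting beads by flow cytometry at 488 nm excitation, with vinblastine (no S9) and cyclophosphamide (plus S9) as positive controls.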

NC(=O)NO [Hydroxyurea]
Conditions | hypodiploid nuclei frequency, CHO-K1 [1] [%] | micronucleus frequency, CHO-K1 [3] [%] | relative survival, CHO-K1 [2]
concentration: 4.5 (µM), S9 metabolic activation: with S9, exposure time: 3-4 hours | 0.42 | 1.82 | 89.5
concentration: 4.5 (µM), S9 metabolic activation: without S9, exposure time: 24 hours | 1.44 | 1.72 | 106
concentration: 5.63 (µM), S9 metabolic activation: with S9, exposure time: 3-4 hours | 0.22 | 1.36 | 80.2
concentration: 5.63 (µM), S9 metabolic activation: without S9, exposure time: 24 hours | 1.32 | 1.68 | 106
concentration: 7.04 (µM), S9 metabolic activation: with S9, exposure time: 3-4 hours | 0.36 | 1.44 | 117
concentration: 7.04 (µM), S9 metabolic activation: without S9, exposure time: 24 hours | 1.24 | 1.68 | 132
concentration: 8.8 (µM), S9 metabolic activation: with S9, exposure time: 3-4 hours | 0.44 | 1.44 | 99.1
concentration: 8.8 (µM), S9 metabolic activation: without S9, exposure time: 24 hours | 1.08 | 2.1 | 119
concentration: 11 (µM), S9 metabolic activation: with S9, exposure time: 3-4 hours | 0.26 | 1.36 | 108
concentration: 11 (µM), S9 metabolic activation: without S9, exposure time: 24 hours | 0.94 | 1.88 | 109
concentration: 13.7 (µM), S9 metabolic activation: with S9, exposure time: 3-4 hours | 0.18 | 2.06 | 95.2
concentration: 13.7 (µM), S9 metabolic activation: without S9, exposure time: 24 hours | 0.98 | 1.92 | 134
concentration: 17.2 (µM), S9 metabolic activation: with S9, exposure time: 3-4 hours | 0.22 | 1.58 | 87
concentration: 17.2 (µM), S9 metabolic activation: without S9, exposure time: 24 hours | 1.14 | 2.76 | 111
concentration: 21.5 (µM), S9 metabolic activation: with S9, exposure time: 3-4 hours | 0.14 | 1.82 | 82.6
concentration: 21.5 (µM), S9 metabolic activation: without S9, exposure time: 24 hours | 1.38 | 2.42 | 96.8
concentration: 26.8 (µM), S9 metabolic activation: with S9, exposure time: 3-4 hours | 0.2 | 1.9 | 109
concentration: 26.8 (µM), S9 metabolic activation: without S9, exposure time: 24 hours | 2.12 | 1.98 | 98.5
concentration: 33.6 (µM), S9 metabolic activation: with S9, exposure time: 3-4 hours | 0.42 | 2.34 | 110
concentration: 33.6 (µM), S9 metabolic activation: without S9, exposure time: 24 hours | 1.62 | 2.28 | 86.8
concentration: 41.9 (µM), S9 metabolic activation: with S9, exposure time: 3-4 hours | 0.48 | 2.12 | 105
concentration: 41.9 (µM), S9 metabolic activation: without S9, exposure time: 24 hours | 2.86 | 2.4 | 82.1
concentration: 52.4 (µM), S9 metabolic activation: with S9, exposure time: 3-4 hours | 0.24 | 1.9 | 78.5
concentration: 52.4 (µM), S9 metabolic activation: without S9, exposure time: 24 hours | 3.5 | 2.86 | 81.1
concentration: 65.5 (µM), S9 metabolic activation: with S9, exposure time: 3-4 hours | 0.24 | 1.84 | 90.9
concentration: 65.5 (µM), S9 metabolic activation: without S9, exposure time: 24 hours | 5.18 | 3.68 | 84.1
concentration: 81.9 (µM), S9 metabolic activation: with S9, exposure time: 3-4 hours | 0.36 | 2.08 | 102
concentration: 81.9 (µM), S9 metabolic activation: without S9, exposure time: 24 hours | 4.4 | 3.56 | 76.7
concentration: 102 (µM), S9 metabolic activation: with S9, exposure time: 3-4 hours | 0.28 | 1.6 | 97.5
concentration: 102 (µM), S9 metabolic activation: without S9, exposure time: 24 hours | 4.74 | 4.08 | 69.8
concentration: 128 (µM), S9 metabolic activation: with S9, exposure time: 3-4 hours | 0.24 | 1.92 | 85.5
concentration: 128 (µM), S9 metabolic activation: without S9, exposure time: 24 hours | 3.78 | 3.96 | 82.1
concentration: 160 (µM), S9 metabolic activation: with S9, exposure time: 3-4 hours | 0.32 | 1.94 | 99.1
concentration: 160 (µM), S9 metabolic activation: without S9, exposure time: 24 hours | 3.48 | 4.16 | 65.4
concentration: 200 (µM), S9 metabolic activation: with S9, exposure time: 3-4 hours | 0.36 | 1.86 | 84.1
concentration: 200 (µM), S9 metabolic activation: without S9, exposure time: 24 hours | 2.72 | 4.26 | 58.8
